Consider 47 molecules from PubChem BioAssay AID1508624 (National Center for Advancing Translational Sciences (NCATS), 2021).

The whole screen tested about 48,000 compounds, of which about 120 (0.25%) were called active. About 4% were inconclusive and are not listed. The call rests on the fitted dose curve; in most records, active means well fitted activation curve with a large enough effect; inconclusive means small, poorly fitted or top-dose-only effect, or another doubt; inactive means no such curve, though single readings can be large or run the other way. The list shows a part of the results.

This assay is described as follows: Primary qHTS for Identification of Small Molecule Activators of Huntingtin-Antisense Promoter Activity. Further: nearly all actives have a fitted effect of over 55% in size. The conditions noted are these: HEK293 HTT-AS promoter firefly luciferase reporter (activity 0% = vehicle and -100% = no light), 24 h; series mostly up to 57.5 µM; activity change, positive = activation: at the top concentration. An excerpt:
Assay Provider: Russell L. Margolis M.D.
Department Neurology, Johns Hopkins University School of Medicine, Baltimore, MD
Huntington's Disease (HD) is a neurodegenerative disorder caused by a CAG repeat expansion in exon 1 of huntingtin (HTT). While there are currently no disease-modifying treatments for HD, recent efforts have focused on development of nucleotide-based therapeutics to lower HTT expression. As an alternative to siRNA or oligonucleotide methods, we hypothesized that suppression of HTT expression might be accomplished by small molecules that either (1) directly decrease HTT expression by suppressing HTT promoter activity or (2) indirectly decrease HTT expression by increasing the promoter activity of HTT-AS, the gene antisense to HTT that appears to inhibit expression of HTT.
We developed and employed a high throughput screen for modifiers of HTT and HTT-AS promoter activity using luminescent reporter HEK293 cells; of the 52,041 compounds tested, we identified 898 replicable hits. We used a rigorous stepwise approach to assess compound toxicity and the capacity of the compounds to specifically lower huntingtin protein in 5 different cell lines, including HEK293 cells, HD lymphoblastoid cells, mouse primary neurons, HD iPSCs differentiated into cortical-like neurons, and HD hESCs. We found no compounds which were able to lower huntingtin without lowering cell viability in all assays, though the potential efficacy of a few compounds at non-toxic doses could not be excluded.
SEQUENCE No. (1, 2, 3, etc.); […] (e.g., Cells, Incubation, Reagent, etc.); VALUE and DESCRIPTION.
1; Reagent; 4 uL; 2,500 Hek293 luciferase reporter cells per wells
3; Compound; 23 nL; Control inhibitor / compound library
5; Reagent; 2.5 uL; Firefly Luc reagent; Dual-Glo Luciferase Reporter Assay System (Promega)
6; Time; 10 min; room temperature incubation
7; Detection; Luminescence; FLuc
NOTES (numbers refer to sequence above)
1; High-throughput screening, measuring luminescence from a Hek293 luciferase reporter, was performed in 1,536 well white-walled tissue-culture treated plates. 2,500 cells were plated in 4 µL of Opti-MEM per well using a Multidrop Combi Reagent Dispenser (ThermoFisher).
2; Assay plates were cultured for 24 hours.
3; Control inhibitor (PTC124; final concentration of 50 uM) and compound library (at final concentrations of 460 nM - 57.5 uM) were added to the assay plate using the Kalypsis Pintool Robotic System equipped with 1536 pinheads.
4; Cells were then incubated for 24 hours at 37 degrees C prior to luminescence measurements.
5; In all cases, luminescence was measured using the Dual-Glo Luciferase Reporter Assay System (Promega) following the manufacturer's instructions.
6; Room temperature incubation.
7; Luminescence signal was obtained using the PerkinElmer ViewLux plate reader. Results were normalized to vehicle control (0% activity) and zero RLU (-100% activity).
As for `O=C(O)c1cccc(NC(=O)c2cccc(S(=O)(=O)Nc3cccc(F)c3)c2)c1`, the “activity change, positive = activation” value is inactive: -2.91%. Take `Cc1ccc(N2CCN(c3nc4ccccc4n4nnnc34)CC2)c(C)c1`: the “activity change, positive = activation” value is inactive: 26%. Turning to `COc1cccc(C(=O)Nc2ccccc2SCc2cc(=O)c3cccc(C)c3[nH]2)c1`, the “activity change, positive = activation” value was inactive: -4.62%. As for `Cc1cc(C)cc(NC(=O)c2cc(S(=O)(=O)N3CCOCC3)cn2C)c1`, the figure is inactive: -4.25%; as for `Cc1ccc(Cl)cc1N1CCN(C(=O)c2cnn(-c3ccc(Cl)cc3)c2C2CCNCC2)CC1`, inactive: -20.7%. Turning to `N#Cc1c[nH]n2c(NC3CCCC3)c(-c3ccc(Br)cc3)nc12`, the “activity change, positive = activation” value was inactive: 4.43%.

Turning to `Cc1ccc(NC(=O)C2CCN(c3ncccn3)CC2)cc1F`, the “activity change, positive = activation” value is inactive: -8.86%. As for `COc1ccccc1OCCn1c(NC(=O)c2ccccc2)nc2ccccc21`, the figure is inactive: 33.6%; as for `CCc1cc2cc(OC)c(OC)cc2c(Cc2ccccc2)n1`, inactive: -12.4%; as for `CCOc1ccccc1NC(=O)C(C)n1nnc2sc3c(c2c1=O)CCCC3` (configuration not stated), inactive: -0.782%.

With `COc1ccc(NC(=O)CSc2nc3ccccc3n2CC(=O)Nc2cccc(C)c2C)cc1`, the “activity change, positive = activation” value was inactive: -23.9%. For `CC1(C)S[C@@H]2[C@H](N=CN3CCCCCC3)C(=O)N2[C@H]1C(=O)O`, the “activity change, positive = activation” value is inactive: -0.977%. `O=C(O)CNC(=O)CNC(=O)CNC(=O)CSC(=O)c1ccccc1`: the “activity change, positive = activation” value was inactive: -3.4%. In the case of `Cc1ccc(-n2c(SCC(N)=O)nc3c(oc4ccccc43)c2=O)cc1`, the “activity change, positive = activation” value was inactive: -26.7%. On to `Cc1ccc(CCNC(=O)c2ccc(Cn3c(=O)c4cccn4c4cccnc43)cc2)cc1`, for which the “activity change, positive = activation” value was inactive: -20.7%. Regarding `O=C(COc1cccc(Cl)c1)N1CCC(c2nc3ccccc3s2)CC1`, the “activity change, positive = activation” value was inactive: -15%. Regarding `CCn1c(CNC(=O)C23CC4CC(CC(C4)C2)C3)nnc1SCC(=O)Nc1ccc(OC)cc1`, the “activity change, positive = activation” value was inactive: -21.6%. In the case of `Cc1ccc(Cl)cc1N1CCN(S(=O)(=O)c2ccc3oc(=O)c4ncn(C)c4c3c2)CC1`, the “activity change, positive = activation” value was inactive: -14.6%. As to `Cc1ccccc1Cn1cc(NC(=O)c2cc(-c3ccc(Cl)cc3)on2)cn1`, the “activity change, positive = activation” value is inactive: -2.54%. Regarding `Oc1ccc(C2CCN(c3ccnc4ccccc34)CC2)cc1O`, the “activity change, positive = activation” value was inactive: -23.6%. Take `Cc1cccc(OCC(=O)NCC2(N3CCN(C)CC3)CCCCC2)c1`: the “activity change, positive = activation” value was inactive: -14.5%. For the molecule `Cc1cccc(NC(=O)CN2C(=O)COc3ccc(S(=O)(=O)Nc4ccccc4)cc32)c1C`, the “activity change, positive = activation” value is inactive: -30.3%. In the case of `CCCS(=O)(=O)N1CC(=O)N(c2ccccc2C)C(C)(C(=O)NC2CCCCC2)C1` (configuration not stated), the “activity change, positive = activation” value was inactive: -9.44%. As to `CC(C)OCCCn1c(=O)c2ccccc2n2c(-c3ccc(F)c(F)c3)nnc12`, the “activity change, positive = activation” value is inactive: -9.19%. Consider `Cc1ccc(S(=O)(=O)c2nnn3c2nc(NCc2ccc(F)cc2)c2sccc23)cc1C`, for which the “activity change, positive = activation” value was inactive: -42.9%.

As for `CCC1CN(C(=O)N2CCC(C(=O)NCc3ccc(C)o3)CC2)c2ccccc2O1` (configuration not stated), the “activity change, positive = activation” value was inactive: -15%. Regarding `COc1ccc(Nc2cc(C(=O)NCc3ccccc3)c3ccccc3n2)cc1`, the “activity change, positive = activation” value is inactive: -15.1%. With `Cc1ccc(Nc2c(-c3ccc(N4CCOCC4)cc3)nc3ccc(Cl)cn23)cc1`, the “activity change, positive = activation” value is inactive: 1.31%. With `CCOc1ccc(C2c3c(oc4ccccc4c3=O)C(=O)N2Cc2ccc3c(c2)OCO3)cc1` (configuration not stated), the “activity change, positive = activation” value was inactive: -12.1%. Turning to `Cc1cc2c(cc1S(=O)(=O)N1CCC(C(N)=O)CC1)OCC(=O)N2`, the “activity change, positive = activation” value is inactive: -5.47%. As to `Cc1cc(C)c(NC(=O)Cn2nnc(-c3nc(-c4ccncc4)no3)c2N)c(C)c1`, the “activity change, positive = activation” value is inactive: -7.5%. As to `Cc1cccc(-c2nnn3c2nc(NCCC(C)C)c2ccccc23)c1`, the “activity change, positive = activation” value was inactive: -5.19%. The same measure for `COc1cc(C(=O)OC(COCCC(C)C)CN2CCOCC2)cc(OC)c1OC` (configuration not stated): inactive: -2.74%; for `CCOC(=O)c1cccc(NC(=O)C2(S(=O)(=O)c3ccc(C)cc3)CC2)c1`: inactive: -16.7%; for `O=C(CSc1nc2c([nH]c3ccccc32)c(=O)n1-c1cccc(C(F)(F)F)c1)N1CCCC1`: inactive: -10.7%. For `COc1cccc(C(=O)Nc2ccc(-c3nc4ccc(C)cc4s3)cc2)c1OC`, the “activity change, positive = activation” value is inactive: -3.14%. As for `COc1cn(CC(=O)Nc2ccc(C)cc2C)c(CN2CCCCC2)cc1=O`, the figure is inactive: -5.51%.

`CCOc1cccc(C2c3c(oc4ccc(F)cc4c3=O)C(=O)N2CCOC)c1` (configuration not stated): the “activity change, positive = activation” value is inactive: 0.0416%.

Regarding `CCCNC(=O)C1CCC(Cn2c(=O)c3sccc3n(CC(=O)N3CCCC(C)C3)c2=O)CC1` (configuration not stated), the “activity change, positive = activation” value is inactive: -6.63%. Regarding `CC(=O)C1=C(c2ccc(C)cc2)N(C(C)=O)n2c(nnc2-c2ccccc2)S1`, the “activity change, positive = activation” value is inactive: -3.65%.

`COc1ccc(S(=O)(=O)NCC(c2ccc(N(C)C)cc2)N2CCCC2)cc1F` (configuration not stated): the “activity change, positive = activation” value is inactive: -14.8%. Take `CCOc1cccc2cc(-c3nc(-c4ccc(Cl)cc4)c(C)s3)c(=O)oc12`: the “activity change, positive = activation” value was inactive: 24.3%.

For `COc1ccc(-c2ccc(NS(=O)(=O)c3ccccc3Cl)cc2)nn1`, the “activity change, positive = activation” value was inactive: -29.2%.

In the case of `COc1ccc(Cn2c(CCC(=O)Nc3cccc(Cl)c3)nc3cccnc32)cc1`, the “activity change, positive = activation” value is inactive: -32.1%. For `Cc1nc(N2CCOCC2)c2c(C(=O)N3CCN(c4ccc(Cl)cc4)CC3)c(C)oc2n1`, the “activity change, positive = activation” value was inactive: -11.3%.

As for `CCOc1ccc(C(c2c(C)[nH]n(-c3ccccc3)c2=O)c2c(C)[nH]n(-c3ccccc3)c2=O)cc1OC`, the “activity change, positive = activation” value is inactive: -14.3%. In the case of `COc1ccc(-c2nsc(NC(=O)c3cccc(OC)c3)n2)cc1`, the “activity change, positive = activation” value was inactive: -22.5%.
